# Source: PubChem BioAssay AID504706 (National Center for Advancing Translational Sciences (NCATS), 2011)
# Hit rate of the full screen: of about 320,000 compounds, about 200 (0.062%) were called active. The shares of active, inactive and inconclusive entries below differ from those in the screen. Calls follow the shape of the dose curve; as a rule, active = well fitted activation curve with a large enough effect; inconclusive = small, poorly fitted or top-dose-only effect; inactive = no such curve, though single readings can be large or run the other way. Potencies of inconclusive entries are left out as doubtful fits.
# Experiment: qHTS assay for re-activators of p53 using a Luc reporter; also: nearly all actives have a fitted effect of over 45% in size; as to activity change, positive = activation: % of control where 0% means no effect
# Details: H1299 p53-A138V BP100-luciferase reporter, luminescence, 24 h; series mostly up to 92.2 µM; activity change, positive = activation: at the top concentration
# In short: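 H1299 (p53-null), stable ts p53-A138V + BP100-Luc; 1000 cells/well, Opti-MEM/10% FBS; cpd 4 pt, 1:5; 24 h, 37 deg C, 5% CO2; detection reagent 10 min RT; luminescence.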
# Potency is read from the fitted curve at half-maximal effect; tags tell the direction and shape of the fitted curve.
SMILES,Potency,"activity change, positive = activation"
O=C(Nc1nc2ccccc2[nH]1)c1ccc(F)c(S(=O)(=O)N2CCOCC2)c1,"inconclusive [activator, full curve, poor fit]",
CCCCOc1ccc(-n2nc(C)cc2C)nn1,"inconclusive [activator, single point]",
CC(C)NC(=O)CN1CCC(O)(c2ccccc2)CC1,"inconclusive [activator, single point]",
Cc1ccc(CSc2nc(N)cc(N)n2)cc1,"inconclusive [activator, partial curve, poor fit]",
CCc1ccc(NC(=O)Cn2c(=O)c3cccn3c3ccccc32)cc1,,inactive: -12.6%
CC(NC(=O)CC1CCCCC1)c1ccccc1 (stereo not drawn),"inconclusive [activator, single point]",
c1ccc2[nH]c(SCc3cscn3)nc2c1,"inconclusive [activator, full curve, poor fit]",
Cc1cc(OCC(=O)OC(C)C(=O)Nc2ccc(N3CCOCC3)cc2)ccc1Cl (stereo not drawn),"inconclusive [activator, partial curve, poor fit]",
Cc1c(C(=O)N2CCOCC2)oc2ccc(Br)cc12,"inconclusive [activator, partial curve, poor fit]",
COc1ccccc1-n1cnc2cc(NCc3ccco3)ccc21,"inconclusive [activator, full curve, poor fit]",
COc1ccc(NC(=O)CSc2nnc(N)s2)cc1,"inconclusive [activator, single point]",
Cc1cc(S(=O)(=O)N2CCOCC2)ccc1OCC(=O)Nc1ccc(F)c(Cl)c1,,inactive: 6.73%
O=C(N/N=C/c1cn(-c2ccccc2)nc1-c1ccc2c(c1)OCCO2)c1ccncc1,"inconclusive [activator, single point]",
Brc1ccc(-c2csc(N/N=C/c3ccc4c(c3)OCO4)n2)cc1,"inconclusive [activator, full curve, poor fit]",
COc1ccc(OCC(=O)Nc2cccc3ncccc23)cc1,"inconclusive [activator, single point]",
CCOCCCNC(=O)c1ccc(Cn2c(=S)[nH]c3c([nH]c4ccc(OC)cc43)c2=O)cc1,,inactive: -2.46%
c1ccc(CN2CCN(c3nc4ccccc4s3)CC2)cc1,"inconclusive [activator, full curve, poor fit]",
COc1ccccc1CSc1ncc(-c2ccc([N+](=O)[O-])cc2)[nH]1,"inconclusive [activator, partial curve, poor fit]",
